From PubChem BioAssay AID624296 (National Center for Advancing Translational Sciences (NCATS), 2012)
Screen size: about 350,000 compounds; about 9,900 (2.8%) were called active. The shares of active, inactive and inconclusive entries below differ from those in the screen. The call rests on the fitted dose curve; in most records, active means well fitted activation curve with a large enough effect; inconclusive means small, poorly fitted or top-dose-only effect; inactive means no such curve, though single readings can be large or run the other way. No potency is given beside an inconclusive call; the fits are too rough.

assay: A quantitative high throughput screen for small molecules that induce DNA re-replication in MCF 10a normal breast cells.; further: nearly all actives have a fitted effect of over 50% in size; settings: MCF 10A DNA re-replication, Hoechst nuclear intensity, 48 h; series mostly up to 46.1 µM
Potency means the concentration at half of the fitted maximal effect; tags describe the fitted curve by direction and shape.

| Structure (SMILES) | Potency |
| --- | --- |
| COc1ccc(/C=C2\C(=O)OCc3cc(OC)c(OC)cc32)cc1OC | inconclusive [activator, single point] |
| Cc1[nH]nc2c1C(c1cc(Br)cs1)C(C#N)=C(N)O2 (stereo not drawn) | inconclusive [activator, single point] |
| CCOc1ccccc1C(=O)NCC(=O)NCC(c1ccco1)N1CCCCC1 (stereo not drawn) | inactive |
| O=C(c1cccnc1)N1CCc2ccccc2C1 | inactive |
| COc1ccccc1NC(=O)C(C)OC(=O)CC1CCCCC1 (stereo not drawn) | inactive |
| O=C(O)c1ccccc1-c1ccccc1C(=O)Nc1ccc2c(c1)[nH]c(=O)c1ccccc12 | inconclusive [activator, single point] |
| O=C(O)c1ccc(NC2CC(=O)N(Cc3ccccc3)C2=O)cc1 (stereo not drawn) | inconclusive [activator, partial curve, poor fit] |
| CC1(C)C(O)=C(c2nc3ccccc3[nH]2)C(=N)N1c1ccccc1 | inconclusive [activator, single point] |
| N#Cc1ccc(CN2CCN(CC(=O)NCCc3ccc(Cl)cc3Cl)CC2)cc1 | inconclusive [activator, partial curve, poor fit] |
| O=C(Nc1cc(Cl)cc(Cl)c1)c1cccc(OC(F)F)c1 | inconclusive [activator, single point] |
| CC(C)(C)NC(=O)/C(=C\c1ccco1)NC(=O)c1ccco1 | inactive |
| Cc1ccc(NC(=O)CN(C)C(=O)c2cc(-c3ccco3)nc3ccccc23)cc1 | inconclusive [activator, single point] |
| COc1ccc2oc(C(=O)OC(C)C(=O)Nc3ccc(N4CCOCC4)cc3)c(C)c2c1 (stereo not drawn) | inconclusive [activator, single point] |
| COc1ccc(CC(=O)NCc2ccc(-n3cccc3)cc2)cc1OC | active: 5.8 µM |
| COCCN1C(=O)N(c2cccc(OC)c2)C(=O)C1CC(=O)Nc1ccc(Cl)cc1 (stereo not drawn) | inconclusive [activator, single point] |
| N#CCCn1c(-c2nonc2NC(=O)c2ccccc2Cl)nc2ccccc21 | inactive |
| Cc1ccc(CNC(=O)C23CN(Cc4ccccc4)CC2C(c2cccc([N+](=O)[O-])c2)=NO3)cc1 (stereo not drawn) | inactive |
| O=C1NC[C@@H](Cc2cccc3ccccc23)N(CC2CCCCC2)C1=O | inactive |
| N#Cc1c(N)nc(SCC(=O)C23CC4CC(CC(C4)C2)C3)c(C#N)c1-c1ccc(Cl)cc1 | inconclusive [activator, partial curve, poor fit] |
| Nc1ncnc(Nc2cccc(F)c2)n1 | inconclusive [activator, partial curve, poor fit] |
| O=[N+]([O-])c1ccc(COc2ccc(-c3[nH]ncc3-c3ccccc3)c(O)c2)cc1 | inconclusive [activator, single point] |
| COc1ccc(NC(=O)N(C)C[C@H]2Oc3c(NS(=O)(=O)c4ccc(OC)cc4)cccc3C(=O)N([C@H](C)CO)C[C@@H]2C)cc1 | inconclusive [activator, full curve, poor fit] |
| CCCCC(=O)Nc1ncc([N+](=O)[O-])s1 | inconclusive [activator, single point] |

| Structure (SMILES) | Potency |
| --- | --- |
| O=C1C=C(N(CCO)Cc2ccccc2)c2ccccc2C1=O | active: 6.51 µM |
| CC(=O)N1c2ccc(S(=O)(=O)N3CCC(C(=O)NCc4ccc(Cl)cc4)CC3)cc2CC1C (stereo not drawn) | active: 23.1 µM |
| CCN1CCCC1CNc1ncnc2c1[nH]c1ccc(F)cc12 (stereo not drawn) | inconclusive [activator, single point] |
| O=C(Nc1ccccc1)c1nc[nH]c1C(=O)N1CCN(c2ccccc2)CC1 | inactive |
| COc1ccc(CN(C)CC(=O)Nc2sc3c(c2C#N)CCC3)c(OC)c1 | inconclusive [activator, single point] |
| CSc1nnc(-c2cccc(NC(=S)NN)c2)o1 | inconclusive [activator, single point] |
| Cc1ccc(/C=C/C(=O)Nc2ccc(S(=O)(=O)Nc3onc(C)c3C)cc2)cc1 | inactive |
| Oc1c(Cl)cc(Cl)cc1CNc1nc2ccccc2[nH]1 | inconclusive [activator, partial curve] |
| Cn1cnnc1SCC(=O)Nc1ncc(C(F)(F)F)cc1Cl | inactive |
| CN(CCC#N)c1ccc(/C=C(\C#N)c2ccccn2)cc1 | inconclusive [activator, single point] |
| CCc1ccc(-c2cc(C(F)(F)F)n3nc(C(=O)Nc4c(C)nn(Cc5ccccc5C)c4C)cc3n2)s1 | inconclusive [activator, full curve] |
| O=C(Nc1ccc(Cl)c(Cl)c1)Nc1ccc(Br)cc1F | inconclusive [activator, partial curve, poor fit] |
| O=C(CSc1nc2ccccc2c(=O)n1CCC(=O)N1CCCCC1)NCc1ccccc1 | inactive |
| CCN(C[C@H]1N[C@@](CC)(C(=O)OC)[C@H]2C(=O)N(Cc3ccccc3)C(=O)[C@@H]12)C(=O)c1ccc(C)cc1 | inactive |
| Cc1cc(Nc2ccc(Cl)cc2)n(-c2ccccc2)n1 | inconclusive [activator, single point] |
| Brc1ccc2nc(N3CCCC3)sc2c1 | inconclusive [activator, partial curve, poor fit] |
| CC(=O)Nc1ccc(NC(=O)CSc2nnc3ccc(-c4cccnc4)nn23)cc1 | inactive |
| O=C(CCOc1ccccc1)Nc1ccccc1[N+](=O)[O-] | inactive |
| Cc1cc(NC(=O)Nc2ccc(F)cc2F)n(C)n1 | inconclusive [activator, single point] |
| CCOC(=O)c1c(NC(=O)/C=C/C(=O)O)sc(C)c1-c1ccc(F)cc1 | inconclusive [activator, single point] |
| C=CCNC(=O)COC(=O)CNC(=O)c1cc(Cl)cc([N+](=O)[O-])c1 | inconclusive [activator, partial curve, poor fit] |
| Cc1ccc(C)c(NC(=O)CN(C)C(=O)Cc2ccc(Cl)cc2Cl)c1 | inconclusive [activator, single point] |
| O=C1OC(c2ccccc2)(c2cc(Br)c(O)c(Br)c2)c2ccccc21 (stereo not drawn) | inconclusive [activator, single point] |

| Structure (SMILES) | Potency |
| --- | --- |
| COc1ccc(Br)cc1/C=C/C(=O)NC(=S)Nc1ccc(Cl)c(C(=O)O)c1 | inconclusive [activator, single point] |
| CC(=O)Oc1ccc(Cl)cc1/C=C/c1ccc2ccccc2n1 | inactive |
| Nc1nc(Br)c2c(F)cccc2c1-c1ccccc1 | inconclusive [activator, single point] |
| CC(=O)Cc1nsc(NC(=O)c2ccc(-c3ccccc3Cl)o2)n1 | active: 11.6 µM |
| O=c1c2sc(-c3ccccc3)cc2nc2n1CCCCC2 | inconclusive [activator, full curve, poor fit] |
| C=CCOc1ccc(/C=C/C(=O)OCC(=O)N2CCN(C(C)=O)CC2)cc1 | inconclusive [activator, single point] |
| COc1ccc(OC2C(=O)N(Cc3ccc4c(c3)OCO4)C2c2cccs2)cc1 (stereo not drawn) | inconclusive [activator, partial curve, poor fit] |
| CCOc1ccc(/C=C2\SC(=S)N(Nc3ccccc3)C2=O)cc1OC | inconclusive [activator, partial curve] |
| COc1ccc(N/C(N)=N/c2nc(CSc3nnc(C)s3)cc(=O)[nH]2)cc1 | inconclusive [activator, partial curve, poor fit] |
| COc1ccc(NC(=O)CN2CCN(c3c(C)cccc3C)CC2)cc1 | inconclusive [activator, single point] |
| CC1=C(C(=O)N2CCOCC2)C(c2c(F)cccc2F)NC(=O)N1 (stereo not drawn) | inactive |
| CN1CC(=O)N(CCOc2ccccc2)C1=O | inconclusive [activator, single point] |
| O=C(c1ccccc1)N1CCN(Cc2ccccc2)CC1 | active: 13 µM |
| OCCNCCCCOc1ccc(OCc2ccccc2)cc1 | inconclusive [activator, partial curve, poor fit] |
| COc1cccc(-n2c(CN3CCN(c4cccc(C)c4)C(C)C3)nc3ccc([N+](=O)[O-])cc3c2=O)c1 (stereo not drawn) | inactive |
| Cc1occc1C(=O)NCc1ccco1 | inconclusive [activator, single point] |
| C=CCn1c(=NC(=O)c2cc(Cl)sc2Cl)sc2cc(S(N)(=O)=O)ccc21 | active: 20.6 µM |
| Cc1c(C)c2c(OCC(=O)NCc3cccnc3)cc3c(c2oc1=O)CCC(C)(C)O3 | inconclusive [activator, full curve, poor fit] |
| CN(C)CCN(Cc1ccco1)S(=O)(=O)c1csc(C(N)=O)c1 | inactive |
| COC(=O)c1ccc(CSc2nc3scc(-c4cccs4)c3c(=O)[nH]2)o1 | inconclusive [activator, partial curve, poor fit] |
| CCN1C[C@@H]2[C@@H]3C(=O)N(C)C(=O)[C@@H]3[C@](CC)(C1=O)N2C(=O)c1ccc(C(C)(C)C)cc1 | inactive |
| O=C(/C(=C/c1cccnc1)n1ccnc1)c1ccc(Cl)cc1Cl | inconclusive [activator, single point] |
